# Source: PubChem BioAssay (Tox21)
# Where “and” joins values, the source holds several entries; their conditions need not be identical. Equal entries are not always repeated. The shares of active, inactive and inconclusive entries below differ from those in the screen. For some of these results: Potencies beside an inconclusive call are fits to weak or partial responses and may not hold up. The source holds several records for some structures; these can differ, active in one and inactive in another. Calls of active or inactive are those of the source. Unless noted, calls come from the whole dose curve; as a rule, active = well fitted curve in the direction sought with a large enough effect in the repeat runs; inconclusive = weak or mixed curves; inactive = no such curve, though single readings can be large; an effect the other way counts as inactive or inconclusive.
# What was measured:
# [1] = qHTS assay to identify small molecule antagonists of the glucocorticoid receptor (GR) signaling pathway - cell viability counter screen (AID 720693); conditions: GR-bla HeLa viability, CellTiter-Glo luminescence, 18 h, with 5 nM dexamethasone present; viability change, negative = cytotoxic: at 58.5 µM (top of the series) unless noted; note: nearly all actives have a fitted effect of over 55% in size; note: potency is the fitted concentration of half-maximal effect
# [2] = qHTS assay for identifying genotoxic compounds that show differential cytotoxicity against isogenic chicken DT40 cell lines with known DNA damage response pathways - wild type cell line (AID 743012); conditions: DT40 wild type chicken cells viability, CellTiter-Glo, 40 h; activity change, negative = cytotoxicity: at 68.4 µM (top of the series) unless noted; note: potency is the fitted concentration of half-maximal effect; nearly all actives have a fitted effect of over 60% in size
# In short: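 Wild type DT40, 300 cells/well, ~0.5 h settle at 37 C/5% CO2; compounds in DMSO added by pintool; 40 h at 37 C/5% CO2; CellTiter-Glo, 30 min RT; luminescence.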
# [3] = qHTS assay for identifying genotoxic compounds that show differential cytotoxicity against isogenic chicken DT40 cell lines with known DNA damage response pathways - Rev3 mutant cell line (AID 743014); conditions: chicken DT40 Rev3-/- viability, CellTiter-Glo, 40 h; activity, negative = cytotoxicity: at 68.4 µM (top of the series); note: nearly all actives have a fitted effect of over 55% in size; note: potency is the fitted concentration of half-maximal effect; for activity, negative = cytotoxicity: % is set by controls: 0 for no effect and ±100 for the full control effect
# [4] = qHTS assay to identify small molecule antagonists of the thyroid receptor (TR) signaling pathway - cell viability counter screen (AID 743064); conditions: GH3.TRE-Luc viability, CellTiter-Fluor, 24 h; activity change, negative = cytotoxic: at 70.3 µM (top of the series) unless noted; note: nearly all actives have a fitted effect of over 50% in size; note: potency is the fitted concentration of half-maximal effect; for activity change, negative = cytotoxic: % is set by controls: 0 for no effect and ±100 for the full control effect
# In short: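 In rat pituitary GH3.TRE-Luc reporter cells co-exposed to compound and 1 nM T3 for 23.5 h, cytotoxicity was assessed with CellTiter-Fluor in the same wells, read by fluorescence.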
# [5] = qHTS assay to identify small molecule antagonists of the estrogen receptor alpha (ER-alpha) signaling pathway - cell viability counter screen (AID 743074; calls by dose curve; note: potency is the fitted concentration of half-maximal effect; nearly all actives have a fitted effect of over 45% in size)
# [6] = qHTS assay to identify small molecule antagonists of the estrogen receptor alpha (ER-alpha) signaling pathway using the BG1 cell line (AID 743080; calls by dose curve;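 note: BG1 cells stimulated with 17beta-estradiol alongside compound; nearly all actives have a fitted effect of over 25% in size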; note: potency is the fitted concentration of half-maximal effect); conditions: BG1Luc4E2 ERE-luciferase antagonist mode, luminescence; activity change, negative = inhibition: at 70.3 µM (top of the series) unless noted
# In short: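 BG1Luc4E2, endogenous ER-alpha, 4xERE-luc; 5 d charcoal-stripped FBS, phenol red free; 24 h plating; cpd + 17beta-estradiol 21.5 h, 37 C/5% CO2; CellTiter-Fluor viability 30 min, then ONE-Glo luciferase 30 min RT.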
# [7] = qHTS assay to identify small molecule antagonists of the estrogen receptor alpha (ER-alpha) signaling pathway using the BG1 cell line - cell viability counter screen (AID 743081); conditions: BG1Luc4E2 viability, CellTiter-Fluor, 22 h; activity change, negative = cytotoxicity: at 70.3 µM (top of the series) unless noted;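 note: compound given together with 17beta-estradiol as the ER stimulus; potency is the fitted concentration of half-maximal effect; nearly all actives have a fitted effect of over 45% in size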
# [8] = qHTS assay to identify small molecule antagonists of the androgen receptor (AR) signaling pathway - cell viability counter screen (AID 743033; note: potency is the fitted concentration of half-maximal effect; nearly all actives have a fitted effect of over 45% in size); conditions: AR-bla HEK293 viability, CellTiter-Glo luminescence, 16 h; activity change, negative = cytotoxicity: at 58.5 µM (top of the series) unless noted
# [9] = biological target: Aromatase (Homo sapiens) (UniProt P11511); experiment: qHTS assay to identify aromatase inhibitors (AID 743083); conditions: MCF-7 aro ERE, testosterone-driven ERE luciferase, 24 h; activity, negative = inhibition: at 70.3 µM (top of the series); note: potency is the fitted concentration of half-maximal effect; nearly all actives have a fitted effect of over 55% in size
# [10] = biological target: Androgen receptor (Homo sapiens) (UniProt P10275); experiment: qHTS assay to identify small molecule antagonists of the androgen receptor (AR) signaling pathway (AID 743035; active = well fitted inhibition curve with a large enough effect in the signal ratio in the repeat runs, not every such curve was filed as active; inconclusive = weak or mixed curves, or effect the other way; inactive = no such curve, though single readings can be large or run the other way; the % refers to the signal ratio; note: potency is the fitted concentration of half-maximal effect); conditions: HEK293 AR-UAS-bla, R1881-stimulated, beta-lactamase FRET, 16 h; activity change, negative = inhibition: at 58.5 µM (top of the series) unless noted
# In short: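 Fluorescence from a beta-lactamase FRET substrate (LiveBLAzer B/G, 2 h, room temperature) measured inhibition of R1881-stimulated signaling in GeneBLAzer AR-UAS-bla HEK293 cells exposed to compound for 16 h at 37C.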
# [11] = biological target: Androgen receptor (Homo sapiens) (UniProt P10275); experiment: qHTS assay to identify small molecule agonists of the androgen receptor (AR) signaling pathway (AID 743036; active = well fitted activation curve with a large enough effect in the signal ratio in the repeat runs, with a control signal flat, not every such curve was filed as active; inconclusive = weak or mixed curves, or effect the other way; inactive = no such curve, though single readings can be large or run the other way; the % refers to the signal ratio; note: % is set by controls: 0 for no effect and ±100 for the full control effect); conditions: HEK293 AR-UAS-bla GripTite, beta-lactamase FRET ratio, 16 h; activation: at 62.4 µM (top of the series) unless noted
# In short: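 Cell-based FRET reporter assay: HEK293 line with a UAS-beta-lactamase construct, compounds added in DMSO, 16 h exposure at 37C, then 2 h substrate step at room temperature and fluorescence intensity read.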
# [12] = qHTS assay to identify small molecule antagonists of the androgen receptor (AR) signaling pathway using the MDA cell line - cell viability counter screen (AID 743041; note: nearly all actives have a fitted effect of over 45% in size; note: potency is the fitted concentration of half-maximal effect); conditions: MDA-kb2 viability, CellTiter-Fluor, 16 h, cells co-treated with R1881 androgen agonist; viability change, negative = cytotoxic: at 70.3 µM (top of the series) unless noted
# In short: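 MDA-kb2 AR-luc human breast carcinoma cells (MMTV-luciferase, AR/GR responsive) were treated with compounds plus R1881 agonist for 16 h at 37 °C. Viability was read as CellTiter-Fluor fluorescence in the same wells as the reporter assay.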
# [13] = biological target: Androgen receptor (Homo sapiens) (UniProt P10275); experiment: qHTS assay to identify small molecule antagonists of the androgen receptor (AR) signaling pathway using the MDA cell line (AID 743042; note: potency is the fitted concentration of half-maximal effect; nearly all actives have a fitted effect of over 55% in size)
# In short: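 MDA-kb2 cells (human breast carcinoma, stably carrying an MMTV-luciferase reporter responsive to AR and GR) were plated at 3,000 cells/well and preincubated 5 hr at 37C, then given compound plus R1881 agonist for 16 h. ONE-Glo luminescence was read.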
# [14] = system: thyroid hormone receptor (rat, GH3 cells); experiment: qHTS assay to identify small molecule agonists of the thyroid receptor (TR) signaling pathway (AID 743066; calls by dose curve; note: % is set by controls: 0 for no effect and ±100 for the full control effect); conditions: GH3.TRE-Luc cells, TR agonist luciferase, 24 h; activation: at 83.9 µM (top of the series) unless noted
# [15] = biological target: Estrogen receptor (Homo sapiens) (UniProt P03372); experiment: qHTS assay to identify small molecule antagonists of the estrogen receptor alpha (ER-alpha) signaling pathway (AID 743069; active = well fitted curve in the direction sought with a large enough effect in the signal ratio in the repeat runs, not every such curve was filed as active; inconclusive = weak or mixed curves, or effect the other way; inactive = no such curve, though single readings can be large or run the other way; the % refers to the signal ratio; note: potency is the fitted concentration of half-maximal effect); conditions: HEK293 ER-alpha-UAS-bla, beta-lactamase ratio, antagonist mode; activity, negative = inhibition: at 69.4 µM (top of the series) unless noted
# In short: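 HEK293 cells stably carrying an ER-alpha-UAS-bla beta-lactamase reporter were pre-cultured overnight in 2% charcoal-stripped FBS medium. Test compounds in DMSO were added together with 17beta-estradiol for 18 hr at 37C. Read-out was fluorescence after 2 hr with LiveBLAzer B/G FRET substrate at room temperature.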
# [16] = biological target: Estrogen receptor (Homo sapiens) (UniProt P03372); experiment: qHTS assay to identify small molecule agonists of the estrogen receptor alpha (ER-alpha) signaling pathway using the BG1 cell line (AID 743079); conditions: BG1Luc4E2 cells, ERE-luciferase agonist, 22 h; activation: at 70.3 µM (top of the series) unless noted; note: nearly all actives have a fitted effect of over 20% in size; note: potency is the fitted concentration of half-maximal effect
# [17] = qHTS assay for identifying genotoxic compounds that show differential cytotoxicity against isogenic chicken DT40 cell lines with known DNA damage response pathways - Rad54/Ku70 mutant cell line (AID 743015); conditions: DT40 Rad54/Ku70 mutant viability, CellTiter-Glo, 40 h; activity change, negative = cytotoxicity: at 66.8 µM (top of the series); note: potency is the fitted concentration of half-maximal effect; nearly all actives have a fitted effect of over 60% in size
# Tags give direction and shape of the fitted curve or compound fluorescence and quenching.
# Sequence of UniProt P11511 (P11511 whole entry, looked up): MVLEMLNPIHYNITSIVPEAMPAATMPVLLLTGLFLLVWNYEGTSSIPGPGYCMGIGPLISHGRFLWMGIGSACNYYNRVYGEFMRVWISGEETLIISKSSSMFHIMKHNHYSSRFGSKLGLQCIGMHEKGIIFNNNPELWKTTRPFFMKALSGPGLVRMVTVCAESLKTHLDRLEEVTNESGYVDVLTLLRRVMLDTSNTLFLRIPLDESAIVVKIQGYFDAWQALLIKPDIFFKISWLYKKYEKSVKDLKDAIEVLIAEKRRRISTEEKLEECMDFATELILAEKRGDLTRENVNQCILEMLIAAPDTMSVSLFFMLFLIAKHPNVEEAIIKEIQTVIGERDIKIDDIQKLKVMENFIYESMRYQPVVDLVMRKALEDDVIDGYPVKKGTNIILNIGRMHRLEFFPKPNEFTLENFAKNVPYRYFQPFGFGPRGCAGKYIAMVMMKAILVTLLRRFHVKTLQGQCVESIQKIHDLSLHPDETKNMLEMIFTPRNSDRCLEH
# Sequence of UniProt P03372 (P03372 whole entry, looked up): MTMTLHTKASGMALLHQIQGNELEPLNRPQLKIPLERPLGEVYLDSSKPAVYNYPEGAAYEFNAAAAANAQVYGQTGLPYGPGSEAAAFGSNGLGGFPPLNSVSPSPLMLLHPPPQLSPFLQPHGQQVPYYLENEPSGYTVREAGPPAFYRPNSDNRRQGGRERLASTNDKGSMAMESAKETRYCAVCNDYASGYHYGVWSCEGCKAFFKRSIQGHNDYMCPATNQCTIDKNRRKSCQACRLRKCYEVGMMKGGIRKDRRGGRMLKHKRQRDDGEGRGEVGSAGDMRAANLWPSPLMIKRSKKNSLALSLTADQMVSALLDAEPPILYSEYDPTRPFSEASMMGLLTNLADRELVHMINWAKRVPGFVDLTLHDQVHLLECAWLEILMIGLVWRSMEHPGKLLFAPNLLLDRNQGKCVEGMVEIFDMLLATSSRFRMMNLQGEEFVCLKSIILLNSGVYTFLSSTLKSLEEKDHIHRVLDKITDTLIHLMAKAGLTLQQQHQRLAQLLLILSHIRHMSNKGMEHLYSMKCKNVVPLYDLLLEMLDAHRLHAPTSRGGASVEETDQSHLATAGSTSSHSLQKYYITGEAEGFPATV
# Sequence of UniProt P10275 (P10275 whole entry, looked up): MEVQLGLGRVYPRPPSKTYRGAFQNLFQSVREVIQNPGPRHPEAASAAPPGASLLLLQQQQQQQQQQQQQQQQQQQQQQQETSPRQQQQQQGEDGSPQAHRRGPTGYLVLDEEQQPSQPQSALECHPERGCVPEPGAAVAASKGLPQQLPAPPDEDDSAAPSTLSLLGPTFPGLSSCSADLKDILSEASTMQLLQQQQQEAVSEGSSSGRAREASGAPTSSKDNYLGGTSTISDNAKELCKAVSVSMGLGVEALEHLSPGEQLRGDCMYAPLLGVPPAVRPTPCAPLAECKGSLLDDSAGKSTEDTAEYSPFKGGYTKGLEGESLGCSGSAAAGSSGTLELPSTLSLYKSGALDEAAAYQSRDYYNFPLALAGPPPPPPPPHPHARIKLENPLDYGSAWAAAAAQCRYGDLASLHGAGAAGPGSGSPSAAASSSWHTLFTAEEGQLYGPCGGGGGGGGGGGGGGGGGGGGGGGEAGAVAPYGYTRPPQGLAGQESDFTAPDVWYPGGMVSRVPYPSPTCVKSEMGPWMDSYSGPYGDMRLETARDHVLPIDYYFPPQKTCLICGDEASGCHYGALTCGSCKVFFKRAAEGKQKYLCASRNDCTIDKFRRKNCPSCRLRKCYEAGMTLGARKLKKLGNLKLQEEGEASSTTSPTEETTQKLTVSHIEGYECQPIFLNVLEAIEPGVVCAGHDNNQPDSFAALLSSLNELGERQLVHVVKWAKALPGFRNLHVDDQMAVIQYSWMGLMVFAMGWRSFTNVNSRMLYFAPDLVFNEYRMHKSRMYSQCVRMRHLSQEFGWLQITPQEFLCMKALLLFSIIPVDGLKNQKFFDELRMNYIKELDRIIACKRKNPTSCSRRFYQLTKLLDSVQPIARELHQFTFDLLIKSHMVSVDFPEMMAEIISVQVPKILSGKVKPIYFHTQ
compound,measurement,setting,value
O=c1cc(-c2ccc(O)cc2)oc2cc(O)cc(O)c12,Potency,[1],"inconclusive: 55.7 µM [cytotoxic, single point] and active: 49 µM"
same,Potency,[2],"inconclusive: 12.4 µM [rising, partial curve]"
same,Potency,[3],active: 69.5 µM and active: 27.3 µM
same,Potency,[4],"active: 55.2 µM and inconclusive: 68.6 µM [cytotoxic, single point]"
same,Potency,[5],"inconclusive: 22.2 µM [cytotoxic, partial curve, poor fit] and inconclusive: 15.5 µM [cytotoxic, single point]"
same,Potency,[6],"inconclusive: 49.2 µM [rising, partial curve] and inconclusive: 30.6 µM [rising, partial curve]"
same,Potency,[7],"inconclusive: 69.5 µM [cytotoxic] and inconclusive: 68.6 µM [cytotoxic, single point]"
Cc1cc(O)c2c(c1)C(=O)c1cc(O)cc(O)c1C2=O,Potency,[1],"inconclusive: 30.2 µM [cytotoxic, partial curve, poor fit]"
same,Potency,[2],"inconclusive: 0.0042 µM [rising, full curve, poor fit]"
same,Potency,[3],inactive and active: 38.6 µM
same,Potency,[8],active: 12 µM
same,Potency,[4],inactive and active: 30.6 µM
same,Potency,[7],active: 29.9 µM and active: 24.3 µM
same,Potency,[9],active: 23.8 µM and active: 54.5 µM
COC(=O)C1=C(C)NC(C)=C(C(=O)OCCCN2CCC(c3ccccc3)(c3ccccc3)CC2)C1c1cccc([N+](=O)[O-])c1 (stereo not drawn),Potency,[1],"inconclusive: 26.8 µM [cytotoxic, single point]"
same,Potency,[2],active: 4.73 µM
same,Potency,[8],active: 21.3 µM
same,Potency,[10],active: 16.9 µM
same,activation,[11],inconclusive: -11.1%
same,Potency,[12],inconclusive: 33.5 µM [cytotoxic]
same,Potency,[13],"inconclusive: 29.8 µM [inhibitor, single point]"
same,Potency,[4],active: 11.9 µM
same,activation,[14],inconclusive: -8.79% [phenotype inactive]
same,Potency,[5],"inconclusive: 26.8 µM [cytotoxic, single point]"
same,Potency,[7],"inconclusive: 26.6 µM [cytotoxic, partial curve]"
same,Potency,[9],"inconclusive: 29.8 µM [inhibitor, single point]"
CCOC(N)=O,Potency,[1],inactive
same,Potency,[2],"inconclusive: 0.58 µM [cytotoxic, partial curve, poor fit]"
same,Potency,[15],inactive
same,Potency,[16],"inactive and inconclusive: 13.7 µM [activator, partial curve, poor fit]"
same,Potency,[6],inactive
CCCCCCCCCCCC[N+](C)(C)Cc1ccccc1,Potency,[1],active: 8.49 µM and active: 19.1 µM and active: 18.9 µM
same,Potency,[17],active: 668 nM and active: 107 nM and active: 1.05 µM
same,Potency,[8],active: 21.3 µM and active: 19.1 µM and active: 21.2 µM
same,Potency,[12],active: 29.8 µM and active: 23.9 µM and active: 37.4 µM
same,activation,[14],inconclusive: -9.38% [phenotype inactive] and inconclusive: 0.967% [phenotype inactive]
same,Potency,[5],active: 10.7 µM and active: 24.1 µM and active: 26.7 µM
same,Potency,[7],"inconclusive: 33.5 µM [cytotoxic, single point] and active: 74.5 µM"
COC(=O)CCC(=O)OC,Potency,[1],inactive
same,"activity, negative = cytotoxicity",[3],inconclusive: -30.8% [cytotoxic]
same,Potency,[4],"inconclusive: 61.1 µM [rising, partial curve]"
same,Potency,[5],"inconclusive: 22.5 µM [rising, single point]"
same,"activity change, negative = inhibition",[6],inconclusive: -2.12% [at 95 µM]
Oc1cccc(O)c1,Potency,[1],inactive
same,Potency,[2],"inconclusive: 59.3 µM [rising, single point]"
same,Potency,[15],"inconclusive: 0.378 µM [cytotoxic, full curve, poor fit]"
same,Potency,[5],"inconclusive: 0.476 µM [rising, full curve, poor fit]"
same,Potency,[16],inactive
same,Potency,[6],inactive
CCN(CC)CCSC(=O)C(c1ccccc1)c1ccccc1,Potency,[1],"inconclusive: 26.8 µM [cytotoxic, partial curve, poor fit]"
same,Potency,[3],"inconclusive: 7.5 µM [cytotoxic, partial curve, poor fit]"
same,Potency,[17],"inconclusive: 33.5 µM [cytotoxic, single point] and inconclusive: 26.6 µM [cytotoxic, partial curve]"
same,Potency,[12],inactive
same,Potency,[4],"inconclusive: 33.5 µM [cytotoxic, single point]"
same,Potency,[15],"inconclusive: 9.52 µM [activator, full curve, poor fit]"
same,"activity, negative = inhibition",[15],inconclusive: 42.2%
same,Potency,[16],inactive
same,Potency,[6],"inconclusive: 33.5 µM [rising, partial curve, poor fit] and inconclusive: 26.6 µM [rising, partial curve, poor fit]"
